Measurements as given in patent publication US11026943B2, “Aminoquinoline derivatives and uses thereof” (UNIVERSITY OF DELHI, priority 2012, dated 2021).

System: primary microglia from P1 rat brains (IL-1β, IL-6, TNF-α, iNOS mRNA)

With `CCN(CC)CCCC(C)Nc1ccnc2cc(Cl)ccc12` (stereo not shown) [CQ, chloroquine] as the compound, how does the “LPS-induced expression of proinflammatory cytokines” value read?
The value was “suppresses”.
